# From PubChem BioAssay (NCATS)
# The shares of active, inactive and inconclusive entries below differ from those in the screen. For part of these data: Where the call is inconclusive, the potency comes from a doubtful curve fit. Activity calls are given as the source filed them. Unless noted, calls come from the whole dose curve; as a rule, active = well fitted curve in the direction sought with a large enough effect; inconclusive = small, poorly fitted or top-dose-only effect, or another doubt; inactive = no such curve, though single readings can be large; an effect the other way counts as inactive or inconclusive.
# How the values were obtained:
# [1] = tested on: Zika virus NS2B-NS3 protease; assay: Primary screen GU AMC qHTS for Zika virus inhibitors (AID 1347154); note: nearly all actives have a fitted effect of over 70% in size; note: potency is the fitted concentration of half-maximal effect;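 for activity change, negative = inhibition: 0% = no-inhibitor control and -100% = no-enzyme control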
# In short: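 Fluorogenic AMC-substrate cleavage by noncovalent NS2B-NS3 protease complex (25 nM, pH 8.0 Tris buffer with Tween 20) followed for 15 minutes at room temperature (~20% conversion). Percent inhibition from ex340/em450 signal change, fitted by 4-parameter Hill equation.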
# [2] = Primary qHTS for small molecule stabilizers of the endoplasmic reticulum resident proteome: Secreted ER Calcium Modulated Protein (SERCaMP) assay (AID 1508630); conditions: SH-SY5Y GLuc-SERCaMP (Gaussia luciferase released on ER calcium loss) secretion, thapsigargin, luminescence; activity change, negative = inhibition: at 38.4 µM (top of the series); note: potency is the fitted concentration of half-maximal effect
# In short: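 GLuc-SERCaMP-expressing SH-SY5Y cells, pretreated 16 h with compound, are challenged with thapsigargin to empty ER calcium stores; after 4 h, coelenterazine is added directly to the medium and luminescence is imaged.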
# [3] = molecular target: Mitogen-activated protein kinase 10 (Mus musculus) (UniProt Q61831); assay: JNK3 AlphaScreen Assay (AID 530; active = well fitted curve in either direction with a large enough effect, not every such curve was filed as active; inconclusive = small, poorly fitted or top-dose-only effect, or another doubt;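 note: kinase came from lysate of stimulated human HepG2 cells; signal reports phosphorylation of biotinylated GST-cJun 1-79 at Ser73 with 10 µM ATP; % is set by controls: 0 for no effect and ±100 for the full control effect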); conditions: JNK3 lysate, c-Jun phosphorylation; activity change, negative = inhibition: at 57.1 µM (top of the series)
# In short: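 Compound titrations were preincubated 15 minutes at room temperature with substrate, antibody and pre-activated JNK3-containing HepG2 lysate. Reactions were started with 10 uM ATP and stopped with EDTA-containing bead buffer for AlphaScreen detection.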
# [4] = molecular target: 3',5'-cyclic-AMP phosphodiesterase 4B (Homo sapiens) (UniProt Q07343); assay: qHTS Assay for Inhibitors of PDE-IV (AID 607; active = well fitted activation curve with a large enough effect in the main read-out, with a control signal flat, not every such curve was filed as active; inconclusive = small, poorly fitted or top-dose-only effect, or effect the other way, or a change in a side signal; note: potency is the fitted concentration of half-maximal effect); conditions: HEK293 ACTOne CNG channel cells, membrane potential fluorescence; activation (PDE inhibition): at 22.9 µM (top of the series)
# Sequence of UniProt Q07343 (Q07343 whole entry, looked up): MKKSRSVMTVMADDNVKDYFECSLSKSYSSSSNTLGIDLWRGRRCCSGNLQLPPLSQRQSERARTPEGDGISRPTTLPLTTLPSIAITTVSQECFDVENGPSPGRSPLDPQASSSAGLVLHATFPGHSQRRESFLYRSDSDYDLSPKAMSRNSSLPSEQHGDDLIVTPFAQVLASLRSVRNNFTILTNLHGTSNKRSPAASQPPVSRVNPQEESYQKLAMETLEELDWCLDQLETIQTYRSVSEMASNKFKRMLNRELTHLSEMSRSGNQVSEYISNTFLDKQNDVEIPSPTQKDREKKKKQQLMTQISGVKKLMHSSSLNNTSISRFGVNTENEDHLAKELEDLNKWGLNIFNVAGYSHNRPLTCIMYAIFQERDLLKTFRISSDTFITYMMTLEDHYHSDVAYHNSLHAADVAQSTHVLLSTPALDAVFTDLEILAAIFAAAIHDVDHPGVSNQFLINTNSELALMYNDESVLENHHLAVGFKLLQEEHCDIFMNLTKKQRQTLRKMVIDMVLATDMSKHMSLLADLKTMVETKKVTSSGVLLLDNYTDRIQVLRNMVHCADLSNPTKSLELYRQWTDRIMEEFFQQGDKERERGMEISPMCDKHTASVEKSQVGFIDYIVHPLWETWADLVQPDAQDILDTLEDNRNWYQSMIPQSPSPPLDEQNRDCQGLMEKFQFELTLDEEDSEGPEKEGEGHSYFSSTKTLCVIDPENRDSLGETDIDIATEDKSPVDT
# In short: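 The readout is membrane depolarisation from a cAMP-sensing CNG channel, detected with a potential dye at ex 535/em 590. Cells were HEK293-derived (endogenous PDE-IV) at 1000 cells/well, titrated up to 22.9 uM final.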
# [5] = molecular target: Cytochrome P450 2D6 (Homo sapiens) (UniProt P10635); assay: qHTS Assay for Inhibitors and Substrates of Cytochrome P450 2D6 (AID 891);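 note: luciferin methyl ether substrate demethylated by CYP2D6 with NADPH regeneration; potency is the fitted concentration of half-maximal effect; nearly all actives have a fitted effect of over 60% in size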
# Sequence of UniProt P10635 (P10635 whole entry, looked up): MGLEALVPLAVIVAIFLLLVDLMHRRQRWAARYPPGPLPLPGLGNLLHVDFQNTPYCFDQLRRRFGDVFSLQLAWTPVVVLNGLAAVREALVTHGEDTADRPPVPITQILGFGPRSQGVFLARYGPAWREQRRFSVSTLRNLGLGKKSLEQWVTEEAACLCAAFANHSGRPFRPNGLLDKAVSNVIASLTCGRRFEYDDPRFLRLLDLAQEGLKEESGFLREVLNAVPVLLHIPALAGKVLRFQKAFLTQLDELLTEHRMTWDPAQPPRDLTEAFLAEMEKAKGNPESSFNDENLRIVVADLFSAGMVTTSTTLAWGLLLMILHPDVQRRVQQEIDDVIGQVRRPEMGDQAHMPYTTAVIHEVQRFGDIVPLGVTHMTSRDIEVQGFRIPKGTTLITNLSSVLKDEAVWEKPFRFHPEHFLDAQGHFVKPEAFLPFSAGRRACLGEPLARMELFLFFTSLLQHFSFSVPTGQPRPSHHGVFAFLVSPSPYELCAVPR
# In short: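 Human CYP2D6 (5 nM) with 30 uM Luciferin-ME EGE (at Km) in 100 mM KPO4, compound preincubated 10 min, then NADPH regeneration system for 60 min at room temperature. Luciferin read by luminescence; normalized to 1.43 uM quinidine.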
# [6] = molecular target: Ubiquitin carboxyl-terminal hydrolase 1 (Homo sapiens) (UniProt O94782); assay: Inhibitors of USP1/UAF1: Pilot qHTS (AID 504865);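 note: rhodamine fluorescence freed from ubiquitin-rhodamine substrate followed over time; potency is the fitted concentration of half-maximal effect; nearly all actives have a fitted effect of over 35% in size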
# Sequence of UniProt O94782 (O94782 whole entry, looked up): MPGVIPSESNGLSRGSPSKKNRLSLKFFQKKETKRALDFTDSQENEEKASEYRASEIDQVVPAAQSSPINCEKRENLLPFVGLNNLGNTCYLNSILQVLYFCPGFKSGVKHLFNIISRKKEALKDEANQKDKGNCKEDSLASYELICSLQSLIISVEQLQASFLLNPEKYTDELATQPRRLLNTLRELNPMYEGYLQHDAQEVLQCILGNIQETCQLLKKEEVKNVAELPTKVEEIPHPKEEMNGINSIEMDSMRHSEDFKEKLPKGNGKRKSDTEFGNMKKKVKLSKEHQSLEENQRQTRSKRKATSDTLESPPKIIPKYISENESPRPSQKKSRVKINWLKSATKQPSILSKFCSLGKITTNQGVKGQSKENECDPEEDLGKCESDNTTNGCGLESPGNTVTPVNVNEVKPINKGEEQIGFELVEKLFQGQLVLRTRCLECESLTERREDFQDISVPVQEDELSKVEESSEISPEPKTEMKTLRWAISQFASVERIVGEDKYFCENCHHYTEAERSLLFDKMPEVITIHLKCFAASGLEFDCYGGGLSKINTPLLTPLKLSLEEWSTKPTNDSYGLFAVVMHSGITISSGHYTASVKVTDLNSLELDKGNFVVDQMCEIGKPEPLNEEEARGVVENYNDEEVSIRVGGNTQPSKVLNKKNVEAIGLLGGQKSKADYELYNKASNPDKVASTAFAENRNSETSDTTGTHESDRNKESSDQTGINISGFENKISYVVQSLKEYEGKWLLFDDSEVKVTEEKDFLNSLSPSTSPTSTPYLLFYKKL
# In short: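 Kinetic fluorescence assay: 1nM USP1/UAF1, 15 min compound preincubation, then 150nM Ub-Rho; 480/540 nm.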
# [7] = NFAT Signaling Pathway (AID 444; active = well fitted curve in either direction with a large enough effect, not every such curve was filed as active; inconclusive = small, poorly fitted or top-dose-only effect, or another doubt;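 note: carbachol stimulus at about its EC50 of 1 µM final; % is set by controls: 0 for no effect and ±100 for the full control effect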); conditions: Jurkat NFAT-bla M1, carbachol, beta-lactamase ratio, 5 h; at 7.69 µM (top of the series) unless noted
# In short: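 Read-out: CCF4 FRET ratio (460 nm/530 nm) after 1 h RT dye loading, used for %activity and AC50 from titration series. Cells: Jurkat NFAT-β-lactamase/M1 line, treated with compound plus 1 uM carbachol for 5 h, 37 °C.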
# [8] = molecular target: Tumor susceptibility gene 101 protein (Homo sapiens) (UniProt Q99816); assay: qHTS Assay for Iinhibitors of HIV-1 Budding by Blocking the Interaction of PTAP/TSG101: Hit Validation (AID 651600); note: potency is the fitted concentration of half-maximal effect; nearly all actives have a fitted effect of over 70% in size
# Sequence of UniProt Q99816 (Q99816 whole entry, looked up, the tested form may be a part): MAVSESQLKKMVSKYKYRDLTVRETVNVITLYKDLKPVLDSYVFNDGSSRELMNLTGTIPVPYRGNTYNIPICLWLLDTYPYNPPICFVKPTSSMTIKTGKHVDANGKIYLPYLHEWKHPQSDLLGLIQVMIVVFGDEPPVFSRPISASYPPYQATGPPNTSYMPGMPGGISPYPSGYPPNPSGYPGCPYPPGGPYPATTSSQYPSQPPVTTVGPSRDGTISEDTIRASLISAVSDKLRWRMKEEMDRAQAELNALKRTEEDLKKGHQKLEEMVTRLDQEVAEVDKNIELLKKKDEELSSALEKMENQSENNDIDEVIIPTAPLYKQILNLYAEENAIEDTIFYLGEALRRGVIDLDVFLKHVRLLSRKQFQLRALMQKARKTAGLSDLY
# In short: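 Displacement of a FITC-labeled PTAP-motif peptide (50 nM) from the Tsg101 binding domain (10 uM) was monitored by fluorescence polarization after a 20 min room-temperature incubation.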
# [9] = molecular target: DNA dC->dU-editing enzyme APOBEC-3G (Homo sapiens) (UniProt Q9HC16); assay: qHTS for inhibitors of Vif-A3G interactions: Validation (AID 588379); note: potency is the fitted concentration of half-maximal effect
# Sequence of UniProt Q9HC16 (Q9HC16 whole entry, looked up): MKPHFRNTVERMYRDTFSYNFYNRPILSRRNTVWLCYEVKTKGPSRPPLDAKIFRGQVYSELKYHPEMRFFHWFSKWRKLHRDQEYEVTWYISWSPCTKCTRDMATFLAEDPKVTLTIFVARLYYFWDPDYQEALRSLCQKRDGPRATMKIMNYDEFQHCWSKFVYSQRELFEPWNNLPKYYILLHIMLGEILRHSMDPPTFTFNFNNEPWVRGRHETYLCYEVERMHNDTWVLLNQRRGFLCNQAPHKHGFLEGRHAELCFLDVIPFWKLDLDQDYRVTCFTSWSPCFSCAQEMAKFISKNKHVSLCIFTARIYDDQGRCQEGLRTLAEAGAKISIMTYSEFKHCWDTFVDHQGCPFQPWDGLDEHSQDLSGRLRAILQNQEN
# In short: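 HeLa cells stably expressing Vif and A3G-eYFP, 700 cells/well, incubated overnight at 37 deg C, then exposed to compound overnight at 37 deg C. Inhibition of Vif-mediated degradation read as increased yellow fluorescence (Ex 488/Em 500-530) by laser-scanning cytometry.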
# [10] = Counterscreen qHTS for small molecule stabilizers of the endoplasmic reticulum resident proteome: GLuc-NoTag assay (AID 1508627); note: potency is the fitted concentration of half-maximal effect
# In short: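 Luminescence of Gaussia luciferase secreted into the medium (coelenterazine, 0.07x final, unlysed cells) was the read-out. Human SH-SY5Y neuroblastoma cells constitutively secreting untagged GLuc received compound for 19 h, then 100 nM thapsigargin for 4 h.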
# [11] = Confirmatory qHTS for small molecule stabilizers of the endoplasmic reticulum resident proteome: Secreted ER Calcium Modulated Protein (SERCaMP) assay (AID 1508628); note: potency is the fitted concentration of half-maximal effect; nearly all actives have a fitted effect of over 40% in size
# In short: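 SH-SY5Y cells stably expressing GLuc-SERCaMP, treated 16 h with compound (primary 1.53, 7.67, 38.3 uM; confirmation 11 concentrations, up to 76.6 uM), then 100 nM thapsigargin for 4 h. Secreted Gaussia luciferase in medium read by coelenterazine luminescence.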
# [12] = Cell Viability qHTS for small molecule stabilizers of the endoplasmic reticulum resident proteome (AID 1508629); conditions: cell viability counter-screen, 100 nM thapsigargin for final 4 h;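 note: potency is the fitted concentration of half-maximal effect; compound exposure about 46 h in total before the viability read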
# Tags give direction and shape of the fitted curve.
smiles,measurement,setting,value
O=C(Nc1cccc(C(=O)Nc2cc(C(=O)Nc3ccc([S+](=O)([O-])[O-])c4cc([S+](=O)([O-])[O-])cc(SOOO)c34)ccc2F)c1)Nc1cccc(C(=O)Nc2cc(C(=O)Nc3ccc([S+](=O)([O-])[O-])c4cc([S+](=O)([O-])[O-])cc([S+](=O)([O-])[O-])c34)ccc2F)c1,Potency,[1],"inconclusive: 1.89 µM [inhibitor, full curve]"
same,Potency,[2],"inconclusive: 8.91 µM [inhibitor, partial curve, poor fit]"
CCCN(C/C=C\I)[C@@H]1CCc2ccc(O)cc2C1,"activity change, negative = inhibition",[3],inconclusive: -14.8%
same,Potency,[4],"inconclusive: 15.1 µM [activator, partial curve]"
same,Potency,[5],active: 0.0158 µM
same,Potency,[6],"inconclusive: 39.8 µM [inhibitor, partial curve, poor fit]"
same,Potency,[1],"inconclusive: 18.9 µM [inhibitor, partial curve]"
CC1=C[C@@H]2c3cccc4[nH]cc(c34)C[C@H]2N(C)C1,"activity change, negative = inhibition",[7],inconclusive: -45.5% [inhibitor] [at 38 µM]
same,Potency,[8],"inconclusive: 29.1 µM [inhibitor, single point]"
same,Potency,[1],"inconclusive: 29.9 µM [inhibitor, partial curve]"
CC(C)C[C@H]1C(=O)N2CCCC2[C@]2(O)O[C@](NC(=O)[C@@H]3C=C4c5cccc6[nH]cc(c56)CC4N(C)C3)(C(C)C)C(=O)N12 (stereo partly drawn),Potency,[9],"inconclusive: 26.6 µM [inhibitor, partial curve]"
same,Potency,[1],inactive
same,Potency,[2],"inconclusive: 10 µM [inhibitor, single point]"
CN1C2CCC1CC(OC(c1ccc(F)cc1)c1ccc(F)cc1)C2 (stereo not drawn),Potency,[1],inactive
same,Potency,[10],active: 22.4 µM
same,Potency,[11],"inconclusive: 8.91 µM [inhibitor, full curve]"
same,Potency,[12],"inconclusive: 28.2 µM [cytotoxic, single point]"
same,Potency,[2],"inconclusive: 2.51 µM [inhibitor, full curve, poor fit]"
